Measurements from the supplement of paper PMC11417369.
The list shows a part of the results.

system: PfSIP2 AP2 domain 1 (GST-tagged); experiment: gcPBM binding intensity (ln(normalized median fluorescence intensity)); higher = stronger DNA binding
Outline: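 Each value is the highest Masliner-normalised natural-log median intensity across replicate spots of either orientation of a probe. The probes were primer-extended double-stranded 36-bp intergenic genomic sequences on an Agilent 4 × 180k array, alongside negative controls, exposed for 1 h to GST-tagged P. falciparum DNA-binding domains expressed in E. coli. Bound protein was picked up with Alexa488 anti-GST antibody and scanned at 488 nm.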

| Sequence | gcPBM binding intensity (ln) |
| --- | --- |
| GAAAATAGAAAAAGCACACATATATTTTGGAATGTA [CACACA_site551] | 6.96 |
| TAATAAGTACCTTTTGCATGTGGCACGCTTTTTTTT [TGCATGCA_site573] | 6.75 |
| TATTATATAACAAAAAGTACTTATAAGAAATATATA [XGTACX_site5467] | 7.26 |
| AAATGAATTATATAATATATATAAATAAATAAATAA [CACACA_negctrl_site359] | 7.2 |
| ATATTTCATCTAGCTACACACATATAATAAATTATT [CACACA_site4094] | 7.31 |
| TTTTCAATATATAGAGCATGCGCATCCACAAATATG [TGCATGCA_site380] | 6.89 |
| AATGGAAAATTATTAACACACACATATAAATATATA [CACACA_site7899] | 6.91 |
| TGCCAATTTTTAAAAACATGCATTATATAGAATAAA [TGCATGCA_site872] | 7.06 |
| ATTAAAAGGGGGTTTACATGTGTGTGTGTAATATGG [TGCATGCA_negctrl_site293] | 7.32 |
| TACAACAATTTTTGCACACACCAAAACATAAAATAA [CACACA_site4964] | 7.52 |
| TTATACATTTGTAAATAAATAGAACTGTATTTTTTT [TGCATGCA_negctrl_site397] | 6.61 |
| TATATACCGATATATACACACAAATACATAAGCTTC [CACACA_site6760] | 6.84 |
| AATAATCATTTTCATAGTACGTATGATTAGAAAAAA [XGTACX_site2589] | 6.98 |
| TTTTGATTGTTATTCGTATATTATTTTATGATTATA [CACACA_negctrl_site1593] | 6.8 |
| CAAAATATTTTTATAACACACATATTTATAACGTGC [CACACA_site6659] | 6.97 |
| TAAATACACTGTAGCGCACACGGCCAAAAAAAAAAA [CACACA_site1818] | 7.25 |
| TTATTATCCTATATTTCTTTTCCTTCTTCAAAATTA [CACACA_negctrl_site1314] | 7.07 |
| TACTATCTATACAATACACACAAAAAAAAAAAAATA [CACACA_site3981] | 6.95 |
| TAATATCATTTATATTGTACTATAACAAAATCTATA [XGTACX_site7700] | 6.8 |
| TATGTCAATTTTCATACATGCGCATAATCTTTATTT [TGCATGCA_site807] | 6.9 |
| ATAAATAAGATACGTACACACATATACAAAATATAC [CACACA_site3661] | 7.3 |
| TATAAAACCCTACTGTTTCTTCTTTATTGATATATT [TGCATGCA_negctrl_site285] | 6.63 |

| Sequence | gcPBM binding intensity (ln) |
| --- | --- |
| AAAGTTTTTATACATACACACCTATAAATTAAGTGC [CACACA_site7198] | 6.99 |
| GAAAGAATAAAATAAACATGCAAATAAAACATAAAA [TGCATGCA_site471] | 7.2 |
| AATTGTAAATTGGGCACTTATAAAAATGAACAAATA [CACACA_negctrl_site1583] | 7.06 |
| TCATAAAGAACAAAGTGTACCTATATATTACATACA [XGTACX_site7595] | 6.9 |
| AGGTAGTTCTGTATCACACACATATATATATATATA [CACACA_site2214] | 9.51 |
| ACTCTTAAAATGTATTGTACATAATTTTTACAAGGG [XGTACX_site6611] | 7.1 |
| CAAAAACGGAAGTGGTGTACCGATATTATATAAACA [XGTACX_site4962] | 6.89 |
| GGAGAATAGTGGAAAACACACACGTTTGAGATATGG [CACACA_site1168] | 6.8 |
| TTTTTTTTTTTTACCTGTACATGTCAGCAAACTTTT [XGTACX_site1171] | 7.07 |
| AACATTATAAGACACACACACACATATATATATATA [CACACA_site8259] | 9.25 |
| TTTCCATTATGATATAGTACATAAATATATGTAATA [XGTACX_site6992] | 7.11 |
| TTGTGTGTATGTATACATATATATATTGAGACGAAT [TGCATGCA_negctrl_site382] | 7.34 |
| AAAAAAAATATATAAACACACATATTTATATACTCA [CACACA_site4984] | 6.75 |
| ACATATAATAAAAAATGTACACACATAAGAAAATTT [XGTACX_site6153] | 7.12 |
| ACTATAAATATATAAATATATATATATATATATATA [GTGCAC_negctrl_site65] | 9.73 |
| ATTTATAATCAGGGTTGTACACTTATAGAATTTTTA [XGTACX_site4175] | 6.9 |
| AATCTTCATACCAACACATGCACAAAAGAAATAAAA [TGCATGCA_site563] | 7.94 |
| CATAAGAAAATAAAAACATGCACATAAGAAATATAC [TGCATGCA_site842] | 7.97 |
| ATATAAATATATGGAAGTACACAAAAAAATTAAAAA [XGTACX_site8624] | 6.93 |
| TATATTTATACATATTGTACATTTTATACTTTTACA [XGTACX_site3884] | 7.09 |
| ATTATTAAAAAGATGTAAATAAATGAATATATGCTT [CACACA_negctrl_site539] | 6.85 |
| TTCTATATATTTTAATGTACATATATGATTATTCTT [XGTACX_site8294] | 7.12 |

| Sequence | gcPBM binding intensity (ln) |
| --- | --- |
| TATTAAGAATTTACATGTACTTGTTAAATAAGAAAA [XGTACX_site4466] | 7.09 |
| ATATAGTATAATAAAAGTACATTTTGATTTTTTCTC [XGTACX_site1797] | 6.93 |
| GTCGCATTTTATACAAGTACACATGAATTATACAAC [XGTACX_site2200] | 7.68 |
| TAAATAATATCTATCACACACGCATATATACATATA [CACACA_site2622] | 6.9 |
| TTCAAAAAAATGTATACACACATAAGTATAATATAA [CACACA_site3758] | 6.91 |
| TGTTTATGTATCAATTGTACAAAAAAAAAAAAAAAA [XGTACX_site1590] | 7.21 |
| GATTTTTTTTTTTTTTCACACACTAATAATATTATC [CACACA_site464] | 7.07 |
| CTTATGTGCATACCTACACACTTACAGATATATATA [CACACA_site5622] | 7.92 |
| TTCAAATATTTTATTTGTACATAAAAAAGAAAGTTA [XGTACX_site8287] | 6.95 |
| TAGGAAGAATTACTGTGTACTAAAATATTAAAAAGT [XGTACX_site4909] | 7.32 |
| ATAAATGAAAAAAAGCGTACATATAAAAAAATATAT [XGTACX_site5063] | 7.3 |
| ACTTACCCATTTATTACACACATAAAGGAAAATTTT [CACACA_site4873] | 7.77 |
| TGTAAATAATATAATAGTACGCATATTTTTATTGAA [XGTACX_site284] | 7.02 |
| ATATATATATATATATGTACACATATATGTGTTTGT [XGTACX_site62] | 9.19 |
| TTAATAAACCTTAGATGTACAGTTATATATAAAATA [XGTACX_site6681] | 6.91 |
| TGAACTCACGAGCACACACACACATATATATATATA [CACACA_site8248] | 9.18 |
| ATACAATAAAGGTGTACACATATATGATGCAAGATG [CACACA_site5897] | 7.46 |
| ATATATATTTTTTAATGTACTTATATTTTTATAATA [XGTACX_site2103] | 7.25 |
| AATTAAACTCACACCACACACAAAAAAAAAAAAAAA [CACACA_site693] | 7.05 |
| AGCAATTGTGTTTTCACACATAAATATATTCCTCAC [CACACA_site5021] | 6.92 |
| GGTCATATTTTTTGCACACAAAAAAAAATATAAAAT [CACACA_site3381] | 7.76 |
| GTATGTATGTATGTATGTACTTATGTAGTCTTAGTT [XGTACX_site1710] | 8.15 |

| Sequence | gcPBM binding intensity (ln) |
| --- | --- |
| AGTGTAGGTATATAAACACACATACAGATATATAAT [CACACA_site4900] | 6.95 |
| TATTCAGGTCCAATGGTGCAATATATTTTTGTAATA [GTGCAC_site9607] | 10.5 |
| TAAAAAATAAAATGGACACACACGTTCAAATTTAGA [CACACA_site2083] | 6.82 |
| TTTAAAAATGCTACATGTACAAAATAAAATATAATA [XGTACX_site2905] | 7.26 |
| ATATATATATATAAAAGTACATGCTTATATATATAT [XGTACX_site3786] | 9.34 |
| AAGTTTATCACAGCCACGCACACATAATATATGTAT [CACACA_site3670] | 6.98 |
| ATTTTTTTTATTCAATGTACTTTTTTTTATATATAT [XGTACX_site4978] | 7.43 |
| CACCCACTAATAAACACACACATATATATATATATA [CACACA_site389] | 9.51 |
| TATATAAACATACATACACACATACAATAAGTAAAA [CACACA_site5118] | 7.19 |
| TACAAAATATATATGACACACATAAAAAAAAGTATA [CACACA_site1373] | 6.96 |
| AATAAAATGAGATGTTGTACAGTTTTGATATATGCA [XGTACX_site3052] | 7.11 |
| ACCTAAGAACTATTTACACACATATACAAAATATAT [CACACA_site2459] | 7.31 |
| ATTGTTCTATGATTTGTACACACTTTTTTTTAAAAT [CACACA_site2825] | 7.55 |
| CATATAAAAATATGCACACACAGGAATACAAACATA [CACACA_site684] | 7.5 |
| AATAAAAAACTACAATATACAAAATTATTAAATCAA [GTGCAC_negctrl_site703] | 6.71 |
| AAACGTACATAATACACACACATGTATCCATATAAA [CACACA_site5173] | 7.21 |
| TATATTGAATGCAAAAGTACATTTGTGTAAATTTAT [XGTACX_site7611] | 6.96 |
| TTTTTGTATTCTACCTTAACAATCTTAAAGATTTTT [CACACA_negctrl_site1157] | 6.97 |
| TGATGGTTACGTTTATGTACACATTACAGTTAGTAT [XGTACX_site998] | 6.86 |
| TTTTTTTTTTTAAAATGTACACGTAATTACATATAT [XGTACX_site752] | 6.96 |
| ACTACATTATTGCATTGTACTTTTTTTTTTTTTTTA [XGTACX_site4605] | 7.33 |
| TTAAAAATTATATAAGTGCATTAATATTTAGAACAA [GTGCAC_site9773] | 8.39 |
